From PMC12820563, “FoxP3 forms a head-to-head dimer in vivo and stabilizes its multimerization on adjacent microsatellites”
Some of the results follow.

The sequences below were run against T1, MBP-FoxP1dN (Mus musculus, UniProt P58462 326-579) (assay: PD-seq (MBP pull-down with sequencing); 20 mM Tris-HCl pH 7.5, 100 mM NaCl, 1.5 mM MgCl2, 0.4 uM protein, 0.1 uM dsDNA library, 30 min, room temperature, amylose pull-down; high values mean tight binding). Conditions: protein: recombinant; tags: His6-MBP; chain copies: 2; dsDNA, one strand shown.
T1 sequence: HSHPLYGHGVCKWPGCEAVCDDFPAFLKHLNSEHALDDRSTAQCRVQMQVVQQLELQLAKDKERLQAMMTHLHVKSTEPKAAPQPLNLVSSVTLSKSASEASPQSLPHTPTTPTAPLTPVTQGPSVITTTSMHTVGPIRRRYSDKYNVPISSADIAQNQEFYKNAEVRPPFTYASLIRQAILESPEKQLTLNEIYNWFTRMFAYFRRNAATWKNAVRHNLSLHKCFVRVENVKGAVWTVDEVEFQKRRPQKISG
Outline: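 Binding is the reads-per-million enrichment of pull-down relative to input, pooled across replicates. For this, 0.4 µM His6-MBP-tagged mouse FoxP3 or FoxP1 fragment lacking the N-terminus, made in E. coli, was incubated with 0.1 µM Klenow-filled double-stranded degenerate DNA library for 30 min at room temperature in Tris pH 7.5 buffer with NaCl and MgCl2. Complexes bound to amylose resin were washed three times before proteinase K released the DNA for PCR barcoding and Illumina sequencing.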
“GATGATTGTTCTCCCAGCTGATGAATTCAAAGGCTCGAGTAAACAAATTTTCCTAATCTTTCTGTTCAAGCGCCATCTAC” was tested, and the binding signal was 0.876 RPM ratio (pull-down/input).
“GATGATTGTTCTCCCAGCTGATGAATTGCGGATCTCGAGTAAACAAATTTTCCTAATCTTTCTGTTCAAGCGCCATCTAC” was tested, and the binding signal was 1.02 RPM ratio (pull-down/input).
For “GATGATTGTTCTCCCAGCTGATGAATTTCTATCGTCGAGTAAACAAATTTTCCTAATCTTTCTGTTCAAGCGCCATCTAC”, the binding signal was 0.923 RPM ratio (pull-down/input).
With “GATGATTGTTCTCCCAGCTGATGAATTGGAAGAATCGAGTAAACAAATTTTCCTAATCTTTCTGTTCAAGCGCCATCTAC” the binding signal was 0.898 RPM ratio (pull-down/input).
With “GATGATTGTTCTCCCAGCTGATGAATTGCTGCGCTCGAGTAAACAAATTTTCCTAATCTTTCTGTTCAAGCGCCATCTAC” the binding signal was 0.956 RPM ratio (pull-down/input).
With “GATGATTGTTCTCCCAGCTGATGAATTTAGTTGATCGAGTAAACAAATTTTCCTAATCTTTCTGTTCAAGCGCCATCTAC” the binding signal was 1.34 RPM ratio (pull-down/input).
For “GATGATTGTTCTCCCAGCTGATGAATTAATCGGATCGAGTAAACAAATTTTCCTAATCTTTCTGTTCAAGCGCCATCTAC”, the binding signal was 0.781 RPM ratio (pull-down/input).
With “GATGATTGTTCTCCCAGCTGATGAATTCAGGTAATCGAGTAAACAAATTTTCCTAATCTTTCTGTTCAAGCGCCATCTAC” the binding signal was 1.38 RPM ratio (pull-down/input).
With “GATGATTGTTCTCCCAGCTGATGAATTGTAGCAGTCGAGTAAACAAATTTTCCTAATCTTTCTGTTCAAGCGCCATCTAC” the binding signal was 0.961 RPM ratio (pull-down/input).
With “GATGATTGTTCTCCCAGCTGATGAATTGCTAGGGTCGAGTAAACAAATTTTCCTAATCTTTCTGTTCAAGCGCCATCTAC” the binding signal was 0.866 RPM ratio (pull-down/input).
“GATGATTGTTCTCCCAGCTGATGAATTTTGGGGCTCGAGTAAACAAATTTTCCTAATCTTTCTGTTCAAGCGCCATCTAC” was tested, and the binding signal was 0.756 RPM ratio (pull-down/input).
With “GATGATTGTTCTCCCAGCTGATGAATTACCTCGATCGAGTAAACAAATTTTCCTAATCTTTCTGTTCAAGCGCCATCTAC” the binding signal was 0.998 RPM ratio (pull-down/input).
In the case of “GATGATTGTTCTCCCAGCTGATGAATTCCTCGTTTCGAGTAAACAAATTTTCCTAATCTTTCTGTTCAAGCGCCATCTAC”, the binding signal is reported as 0.773 RPM ratio (pull-down/input).
With “GATGATTGTTCTCCCAGCTGATGAATTCAGCGTTTCGAGTAAACAAATTTTCCTAATCTTTCTGTTCAAGCGCCATCTAC” the binding signal was 0.891 RPM ratio (pull-down/input).
For “GATGATTGTTCTCCCAGCTGATGAATTAGCTCGATCGAGTAAACAAATTTTCCTAATCTTTCTGTTCAAGCGCCATCTAC”, the binding signal was 0.866 RPM ratio (pull-down/input).
With “GATGATTGTTCTCCCAGCTGATGAATTTACCCGATCGAGTAAACAAATTTTCCTAATCTTTCTGTTCAAGCGCCATCTAC” the binding signal was 1.09 RPM ratio (pull-down/input).
For “GATGATTGTTCTCCCAGCTGATGAATTAAGTGGTTCGAGTAAACAAATTTTCCTAATCTTTCTGTTCAAGCGCCATCTAC”, the binding signal was 0.953 RPM ratio (pull-down/input).
“GATGATTGTTCTCCCAGCTGATGAATTTCCATCTTCGAGTAAACAAATTTTCCTAATCTTTCTGTTCAAGCGCCATCTAC” was tested, and the binding signal was 0.809 RPM ratio (pull-down/input).
With “GATGATTGTTCTCCCAGCTGATGAATTCGAGGACTCGAGTAAACAAATTTTCCTAATCTTTCTGTTCAAGCGCCATCTAC” the binding signal was 0.74 RPM ratio (pull-down/input).
“GATGATTGTTCTCCCAGCTGATGAATTGAACGGGTCGAGTAAACAAATTTTCCTAATCTTTCTGTTCAAGCGCCATCTAC” was tested, and the binding signal was 0.773 RPM ratio (pull-down/input).
In the case of “GATGATTGTTCTCCCAGCTGATGAATTCTTTACTTCGAGTAAACAAATTTTCCTAATCTTTCTGTTCAAGCGCCATCTAC”, the binding signal is reported as 0.993 RPM ratio (pull-down/input).
With “GATGATTGTTCTCCCAGCTGATGAATTCTTTAGGTCGAGTAAACAAATTTTCCTAATCTTTCTGTTCAAGCGCCATCTAC” the binding signal was 0.821 RPM ratio (pull-down/input).
“GATGATTGTTCTCCCAGCTGATGAATTGCTGACCTCGAGTAAACAAATTTTCCTAATCTTTCTGTTCAAGCGCCATCTAC” was tested, and the binding signal was 0.907 RPM ratio (pull-down/input).
With “GATGATTGTTCTCCCAGCTGATGAATTTAGCACGTCGAGTAAACAAATTTTCCTAATCTTTCTGTTCAAGCGCCATCTAC” the binding signal was 0.886 RPM ratio (pull-down/input).
For “GATGATTGTTCTCCCAGCTGATGAATTAGGACGATCGAGTAAACAAATTTTCCTAATCTTTCTGTTCAAGCGCCATCTAC”, the binding signal was 0.899 RPM ratio (pull-down/input).
For “GATGATTGTTCTCCCAGCTGATGAATTGATCACTTCGAGTAAACAAATTTTCCTAATCTTTCTGTTCAAGCGCCATCTAC”, the binding signal was 1.02 RPM ratio (pull-down/input).
With “GATGATTGTTCTCCCAGCTGATGAATTGTGATTATCGAGTAAACAAATTTTCCTAATCTTTCTGTTCAAGCGCCATCTAC” the binding signal was 1.74 RPM ratio (pull-down/input).
With “GATGATTGTTCTCCCAGCTGATGAATTGAGACTATCGAGTAAACAAATTTTCCTAATCTTTCTGTTCAAGCGCCATCTAC” the binding signal was 0.923 RPM ratio (pull-down/input).
With “GATGATTGTTCTCCCAGCTGATGAATTCACTGTTTCGAGTAAACAAATTTTCCTAATCTTTCTGTTCAAGCGCCATCTAC” the binding signal was 0.989 RPM ratio (pull-down/input).
In the case of “GATGATTGTTCTCCCAGCTGATGAATTTTGACGCTCGAGTAAACAAATTTTCCTAATCTTTCTGTTCAAGCGCCATCTAC”, the binding signal is reported as 0.967 RPM ratio (pull-down/input).
“GATGATTGTTCTCCCAGCTGATGAATTCCGAACCTCGAGTAAACAAATTTTCCTAATCTTTCTGTTCAAGCGCCATCTAC” was tested, and the binding signal was 0.751 RPM ratio (pull-down/input).
In the case of “GATGATTGTTCTCCCAGCTGATGAATTTTACTCCTCGAGTAAACAAATTTTCCTAATCTTTCTGTTCAAGCGCCATCTAC”, the binding signal is reported as 0.83 RPM ratio (pull-down/input).
With “GATGATTGTTCTCCCAGCTGATGAATTCGTACGTTCGAGTAAACAAATTTTCCTAATCTTTCTGTTCAAGCGCCATCTAC” the binding signal was 0.931 RPM ratio (pull-down/input).
In the case of “GATGATTGTTCTCCCAGCTGATGAATTTGCCGAGTCGAGTAAACAAATTTTCCTAATCTTTCTGTTCAAGCGCCATCTAC”, the binding signal is reported as 0.837 RPM ratio (pull-down/input).
In the case of “GATGATTGTTCTCCCAGCTGATGAATTTTTGTCGTCGAGTAAACAAATTTTCCTAATCTTTCTGTTCAAGCGCCATCTAC”, the binding signal is reported as 1.24 RPM ratio (pull-down/input).
For “GATGATTGTTCTCCCAGCTGATGAATTACACGCCTCGAGTAAACAAATTTTCCTAATCTTTCTGTTCAAGCGCCATCTAC”, the binding signal was 1.1 RPM ratio (pull-down/input).
With “GATGATTGTTCTCCCAGCTGATGAATTTCCAGCATCGAGTAAACAAATTTTCCTAATCTTTCTGTTCAAGCGCCATCTAC” the binding signal was 1 RPM ratio (pull-down/input).
“GATGATTGTTCTCCCAGCTGATGAATTTTTTGCTTCGAGTAAACAAATTTTCCTAATCTTTCTGTTCAAGCGCCATCTAC” was tested, and the binding signal was 0.938 RPM ratio (pull-down/input).
“GATGATTGTTCTCCCAGCTGATGAATTCCCGGCCTCGAGTAAACAAATTTTCCTAATCTTTCTGTTCAAGCGCCATCTAC” was tested, and the binding signal was 0.725 RPM ratio (pull-down/input).
With “GATGATTGTTCTCCCAGCTGATGAATTCTAGCTCTCGAGTAAACAAATTTTCCTAATCTTTCTGTTCAAGCGCCATCTAC” the binding signal was 0.804 RPM ratio (pull-down/input).
